The full ranking holds about 33,000 sequences; the median of “E-score (-0.5 to 0.5)” is about -0.053, and the highest 2% start at about 0.37. The list shows a part of the results.
These sequences were tested against Hap1 (UniProt P0CE41) (assay: PBM E-score (8-mer binding enrichment) (E-score (-0.5 to 0.5)); higher = stronger / more preferred TF binding; most listed sequences are background and not binding sites). Conditions: protein concentration: 200 nM; construct: GST-DNA-binding domain.
Method in brief: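 Full-length yeast transcription factors or their DNA-binding domains, GST-tagged and expressed with PURExpress, were applied at about 100-200 nM to universal all-10-mer Agilent arrays. These arrays had been made double-stranded by primer extension on fresh or once-stripped slides. Detection used fluorescent anti-GST, normalisation used masliner, and E-scores for ungapped eight-base words pooled with reverse complements came from the Universal PBM Analysis Suite.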

Sequence of UniProt P0CE41 (P0CE41 whole entry, the tested form may be a part): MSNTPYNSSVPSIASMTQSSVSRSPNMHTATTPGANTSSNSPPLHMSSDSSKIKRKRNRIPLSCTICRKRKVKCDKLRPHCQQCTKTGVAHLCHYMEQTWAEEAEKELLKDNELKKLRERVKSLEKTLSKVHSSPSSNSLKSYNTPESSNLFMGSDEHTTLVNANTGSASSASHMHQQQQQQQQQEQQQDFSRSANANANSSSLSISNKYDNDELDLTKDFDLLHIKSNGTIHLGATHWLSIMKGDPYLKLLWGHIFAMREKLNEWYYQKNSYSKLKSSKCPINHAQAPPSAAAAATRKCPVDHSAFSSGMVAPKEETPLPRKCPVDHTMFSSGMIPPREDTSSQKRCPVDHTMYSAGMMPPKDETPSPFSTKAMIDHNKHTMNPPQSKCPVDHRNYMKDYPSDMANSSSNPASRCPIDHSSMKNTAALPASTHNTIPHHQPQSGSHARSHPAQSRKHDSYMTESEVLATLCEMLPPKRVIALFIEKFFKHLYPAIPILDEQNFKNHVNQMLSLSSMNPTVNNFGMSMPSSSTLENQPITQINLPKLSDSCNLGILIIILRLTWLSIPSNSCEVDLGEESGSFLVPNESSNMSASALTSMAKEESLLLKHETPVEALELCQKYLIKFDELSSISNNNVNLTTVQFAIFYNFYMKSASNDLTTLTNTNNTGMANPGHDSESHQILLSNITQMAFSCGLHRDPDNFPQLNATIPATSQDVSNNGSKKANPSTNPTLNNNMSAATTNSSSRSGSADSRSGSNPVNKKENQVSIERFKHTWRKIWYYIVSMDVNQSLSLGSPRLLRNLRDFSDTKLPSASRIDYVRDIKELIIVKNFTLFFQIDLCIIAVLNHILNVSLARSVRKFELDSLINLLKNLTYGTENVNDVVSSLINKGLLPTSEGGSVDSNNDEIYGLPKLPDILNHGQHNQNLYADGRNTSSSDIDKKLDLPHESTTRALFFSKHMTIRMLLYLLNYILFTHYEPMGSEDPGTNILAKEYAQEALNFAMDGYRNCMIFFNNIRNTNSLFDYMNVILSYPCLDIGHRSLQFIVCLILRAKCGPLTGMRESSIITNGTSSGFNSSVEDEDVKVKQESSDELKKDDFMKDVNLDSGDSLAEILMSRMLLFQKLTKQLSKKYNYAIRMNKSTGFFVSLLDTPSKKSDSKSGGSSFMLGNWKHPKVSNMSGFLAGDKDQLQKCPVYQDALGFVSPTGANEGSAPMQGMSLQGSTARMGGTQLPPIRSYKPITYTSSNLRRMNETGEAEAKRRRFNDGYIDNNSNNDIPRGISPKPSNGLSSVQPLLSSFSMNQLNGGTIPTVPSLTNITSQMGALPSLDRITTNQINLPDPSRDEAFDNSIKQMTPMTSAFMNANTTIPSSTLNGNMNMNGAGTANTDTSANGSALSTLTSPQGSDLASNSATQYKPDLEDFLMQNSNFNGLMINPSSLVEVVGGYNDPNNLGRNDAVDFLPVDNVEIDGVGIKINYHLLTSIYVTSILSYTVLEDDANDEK

Sequence	PBM E-score
CGAATTCA	0.144
TAGAACTA	-0.157
CGGCAATA	0.408
AGCCAGGC	-0.141
ATCGGTTG	0.231
ATGAGGCG	0.0542
ACGATAGT	-0.242
CTGGGGGC	-0.219
TGATCACA	-0.16
AGCAATGA	-0.0478
GGAGTTCA	0.0968
AGCAACGG	0.2
CTCGACAG	-0.23
AAGGAGCA	-0.168
CACAATCC	0.00608
ATTTTTAG	-0.075
ACTCACGA	-0.217
CTGGTGTC	-0.132
TCGTCGCA	-0.0994
GAGCTGCC	0.173
CGGAAAGA	0.305
CCAAACTA	-0.134
AACGAACT	-0.157
GACACTGC	-0.153
CCATAACC	-0.0952

Sequence	PBM E-score
CCGTCTGC	0.0393
AAATGTCG	0.0311
AGCCAAAT	0.114
TATTACAA	-0.0901
ACAACGAG	-0.13
ATGCGGTA	0.173
AATCTCAT	-0.118
CAGTCACA	-0.418
CTAGGGGA	-0.162
ACACCAAA	-0.176
GCTGGAAC	-0.0644
GCACGTGC	0.0623
CGGATTCC	0.356
AGGTAACC	-0.0072
CAGAGGTC	0.00205
CTGATTCC	-0.0536
GAGGGCGA	0.0665
AAGCACGA	-0.141
CACGCCAC	-0.209
CGTCACGC	-0.0646
AAAACAAA	0.043
AATAGTTG	-0.0245
GCATTTAC	0.0528
CCCGATCC	0.31
AGTTGCCC	0.00608

Sequence	PBM E-score
AGCCCACC	0.0883
GGGAAAAA	0.0878
ACATTGAT	-0.0542
CGAGGAGA	-0.00186
ACAGCGCG	0.0018
ATCTGTGC	-0.14
AAGGCAAG	-0.183
AGGAAGTC	-0.292
AAGTCAGT	-0.0893
CGCGCCTC	0.114
AGTAATGA	-0.0848
GCCCGACC	0.186
AGTAGATA	-0.0313
CTAGGGTA	-0.221
ACCTCGAC	-0.183
GTTCCAAA	-0.109
AATCGGTG	0.128
AATAGCAG	-0.0813
AGGACACC	-0.00126
ATTCTATC	-0.0566
GATCATGC	-0.0933
AATAAACA	0.0458
AGGTGGGA	-0.0974
GGCATATA	0.0598
ACCGCTGA	0.0609

Sequence	PBM E-score
CCAAACGC	-0.107
TGGGTAAA	-0.136
AATGGGAG	-0.101
CGGCGACA	0.23
ACGTTGTG	-0.142
GAGAAATC	0.0472
ACGTCTCC	-0.0704
GACTCCGA	0.301
GCCGACAA	0.278
ATCTTTGA	-0.0915
CTTCAGCA	-0.327
GTCTTGAA	-0.175
AAGACTAG	-0.353
AAGCCCGT	0.232
TAAAAACA	-0.165
GCACAGCC	0.0918
ACCCGATG	0.3
CGGAACCG	0.295
CCTTCCCC	0.108
CGTAACCA	-0.19
ACACCAGA	-0.0818
AAACGTTA	-0.0942
CCAAGGGC	-0.212
CACGAGAG	-0.128
AATGGGAT	-0.019

Sequence	PBM E-score
GACCTGAA	0.0636
TCAGCTAA	-0.21
CTAATCTC	-0.00409
CGCATGTC	-0.0848
GATACATA	0.059
AAAGTGGG	0.0026
AATTATAT	0.0596
AGAACAAA	-0.00064
CGCGCGAG	0.169
CAGCTAGC	-0.145
TTTAGAAA	0.0499
CGATCTCC	0.216
CGGTTTAC	0.105
AGTCCTGA	-0.273
GCTCTATA	-0.0872
AATGGACT	-0.163
CTGACTGA	-0.221
ATGATGGG	-0.116
AGTGCCGG	0.362
AACCGTGT	-0.0449
ACGAGACG	-0.13
AAACCCAT	0.14
GTTTGCCA	-0.165
CACTAAGC	-0.178
AGCTTGAT	-0.287

Sequence	PBM E-score
ATAGCAAG	-0.13
GCGTCAAC	0.0164
GTTAGTCA	-0.0615
CACGCAAG	-0.195
ACTGCACC	0.0352
CGGGGACA	0.275
TAGTCAAA	-0.259
CATTGAGC	-0.144
CGATCTTA	0.0333
ACGGTCCT	-0.021
CGAAGAGC	0.149
TTACGGAA	0.317
CTTAAGAC	0.14
CCGCGTAA	0.229
ATGCGCTA	-0.0961
CTGAGGCA	-0.236
AACGATAT	-0.0547
CGATGCGC	0.13
CGTAAAAG	0.0842
CAACTCAA	-0.184
AAAATCCG	0.437
ATACTATA	-0.177
AAAATCGA	-0.107
GCGTCTGA	-0.223
AAATCGAG	-0.0227

Sequence	PBM E-score
ACCAGGGG	-0.191
ACTAATAC	0.219
CCATGTAC	-0.102
CGGCCTTC	0.301
GGTTTGTA	-0.0977
CGCTGCAC	-0.0193
GCCGTAAC	0.229
CTGTTAAA	-0.146
AGACCCTA	-0.17
CAAGCCAC	-0.21
AAGTCTTC	-0.209
AAATACGC	0.179
ATTCAGCG	0.012
AAATCCGC	0.387
CGGCACAA	0.145
AGATGTTC	-0.135
ACAATTCG	0.0487
GACCCACA	-0.122
ATACGAAA	0.0671
CCGCCCGA	0.37
TCACCACA	-0.168
ATTACAAA	-0.115
CAGGTATC	0.0262
AACAATAC	-0.134
CATTTTTC	0.0562

Sequence	PBM E-score
TGGAACAA	-0.211
CTTCGCAC	-0.129
AGTTACGG	0.0958
AATGCGCA	0.067
GTCTCATA	-0.073
GTGCGTAA	-0.0602
ACAAGAGC	-0.109
CAGACAGC	-0.11
ATGTATTG	-0.0708
AATTCCTG	-0.0671
CAGCGGTA	-0.00677
CATAGAAG	-0.0619
TCCCTCCA	-0.206
ACGCCGCA	0.18
AGCCTAGA	-0.296
AATTGACA	0.0446
CGTAGGGC	-0.163
GAAATGGC	0.0049
AAAAGCGC	0.134
CAGTTACC	0.109
GATAAATC	0.216
ACGGGACT	0.119
AACTAACC	0.122
ATTGTCAA	-0.133
ACCTAAGT	0.00803

Sequence	PBM E-score
CGAGAGCC	0.0315
TCGAATCA	-0.201
ACGGCACC	-0.129
GCCCACAA	-0.182
ACTCCTTA	-0.13
CATTCCTA	-0.226
AAGTATAA	0.132
AGCTCGAA	0.154
TCGAGGCA	-0.323
CAATGGCG	0.165
GTGCCGCA	-0.0182
TCATTCCA	-0.0281
CAGCCGGA	0.33
AATACTGC	-0.0242
AAACTACC	-0.0252
ATTAATTA	-0.241
AGGAGTGA	-0.255
ACGTGGCC	-0.352
CGTTTCGA	-0.266
